The other results are listed elsewhere or left out.

The assay addresses T1, MBP-FoxP1dN (Mus musculus, UniProt P58462 326-579).
T1 sequence: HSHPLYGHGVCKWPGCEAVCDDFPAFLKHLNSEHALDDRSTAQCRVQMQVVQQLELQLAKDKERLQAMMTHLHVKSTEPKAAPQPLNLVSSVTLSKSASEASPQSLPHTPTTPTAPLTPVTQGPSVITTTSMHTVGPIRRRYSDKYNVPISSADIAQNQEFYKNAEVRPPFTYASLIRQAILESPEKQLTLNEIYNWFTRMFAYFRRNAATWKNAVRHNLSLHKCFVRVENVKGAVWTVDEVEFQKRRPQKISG
The assay is described as follows: PD-seq (MBP pull-down with sequencing); 20 mM Tris-HCl pH 7.5, 100 mM NaCl, 1.5 mM MgCl2, 0.4 uM protein, 0.1 uM dsDNA library, 30 min, room temperature, amylose pull-down; high values mean tight binding. The following applies: protein: recombinant; tags: His6-MBP; chain copies: 2; dsDNA, one strand shown. Summed up: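 The N-terminus-lacking fragment of mouse FoxP3 or FoxP1 carried a His6-MBP tag and was expressed in E. coli. At 0.4 µM it was incubated with 0.1 µM Klenow-filled degenerate double-stranded DNA library for 30 min at room temperature in Tris pH 7.5 buffer with NaCl and MgCl2, and complexes were caught on amylose resin, washed three times, released with proteinase K, PCR-barcoded and Illumina-sequenced. Binding is reads-per-million enrichment of pull-down over input with replicates pooled.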
Turning to “GATGATTGTTCTCCCAGCTGATGAATTACCATTGTCGAGTAAACAAATTTTCCTAATCTTTCTGTTCAAGCGCCATCTAC”, the binding signal was 1.04 RPM ratio (pull-down/input).
With “GATGATTGTTCTCCCAGCTGATGAATTTCTTGGCTCGAGTAAACAAATTTTCCTAATCTTTCTGTTCAAGCGCCATCTAC”, the binding signal was 0.811 RPM ratio (pull-down/input).
In the case of “GATGATTGTTCTCCCAGCTGATGAATTTCCTCCGTCGAGTAAACAAATTTTCCTAATCTTTCTGTTCAAGCGCCATCTAC”, the binding signal is 0.887 RPM ratio (pull-down/input).
Take “GATGATTGTTCTCCCAGCTGATGAATTGAATGTCTCGAGTAAACAAATTTTCCTAATCTTTCTGTTCAAGCGCCATCTAC”: the binding signal is 0.84 RPM ratio (pull-down/input).
Regarding “GATGATTGTTCTCCCAGCTGATGAATTCTCTATATCGAGTAAACAAATTTTCCTAATCTTTCTGTTCAAGCGCCATCTAC”, the binding signal is 0.94 RPM ratio (pull-down/input).
In the case of “GATGATTGTTCTCCCAGCTGATGAATTAAGCGGTTCGAGTAAACAAATTTTCCTAATCTTTCTGTTCAAGCGCCATCTAC”, the binding signal is 0.979 RPM ratio (pull-down/input).
Take “GATGATTGTTCTCCCAGCTGATGAATTGGCATCGTCGAGTAAACAAATTTTCCTAATCTTTCTGTTCAAGCGCCATCTAC”: the binding signal is 0.938 RPM ratio (pull-down/input).
For the sequence “GATGATTGTTCTCCCAGCTGATGAATTACTTTGCTCGAGTAAACAAATTTTCCTAATCTTTCTGTTCAAGCGCCATCTAC”, the binding signal is 1.02 RPM ratio (pull-down/input).
“GATGATTGTTCTCCCAGCTGATGAATTCGCACCTTCGAGTAAACAAATTTTCCTAATCTTTCTGTTCAAGCGCCATCTAC”: the binding signal is 0.893 RPM ratio (pull-down/input).
For “GATGATTGTTCTCCCAGCTGATGAATTTTAGCTATCGAGTAAACAAATTTTCCTAATCTTTCTGTTCAAGCGCCATCTAC”, the binding signal was 0.97 RPM ratio (pull-down/input).
In the case of “GATGATTGTTCTCCCAGCTGATGAATTTGCTCGATCGAGTAAACAAATTTTCCTAATCTTTCTGTTCAAGCGCCATCTAC”, the binding signal was 0.994 RPM ratio (pull-down/input).
With “GATGATTGTTCTCCCAGCTGATGAATTTATCATGTCGAGTAAACAAATTTTCCTAATCTTTCTGTTCAAGCGCCATCTAC”, the binding signal was 1.15 RPM ratio (pull-down/input).
As to “GATGATTGTTCTCCCAGCTGATGAATTCTTAGGATCGAGTAAACAAATTTTCCTAATCTTTCTGTTCAAGCGCCATCTAC”, the binding signal is 0.802 RPM ratio (pull-down/input).
On to “GATGATTGTTCTCCCAGCTGATGAATTCGGATTTTCGAGTAAACAAATTTTCCTAATCTTTCTGTTCAAGCGCCATCTAC”, for which the binding signal is 0.958 RPM ratio (pull-down/input).
For the sequence “GATGATTGTTCTCCCAGCTGATGAATTTCCAGTTTCGAGTAAACAAATTTTCCTAATCTTTCTGTTCAAGCGCCATCTAC”, the binding signal was 0.804 RPM ratio (pull-down/input).
The value for “GATGATTGTTCTCCCAGCTGATGAATTGTTCGTTTCGAGTAAACAAATTTTCCTAATCTTTCTGTTCAAGCGCCATCTAC” was 1.15 RPM ratio (pull-down/input); that for “GATGATTGTTCTCCCAGCTGATGAATTTCGAAGCTCGAGTAAACAAATTTTCCTAATCTTTCTGTTCAAGCGCCATCTAC” was 0.756 RPM ratio (pull-down/input).
On to “GATGATTGTTCTCCCAGCTGATGAATTAAGACTCTCGAGTAAACAAATTTTCCTAATCTTTCTGTTCAAGCGCCATCTAC”, for which the binding signal is 0.773 RPM ratio (pull-down/input).
As for “GATGATTGTTCTCCCAGCTGATGAATTCGGACATTCGAGTAAACAAATTTTCCTAATCTTTCTGTTCAAGCGCCATCTAC”, the binding signal was 0.883 RPM ratio (pull-down/input).
Consider “GATGATTGTTCTCCCAGCTGATGAATTTGAGTTGTCGAGTAAACAAATTTTCCTAATCTTTCTGTTCAAGCGCCATCTAC”, for which the binding signal is 1.19 RPM ratio (pull-down/input).
On to “GATGATTGTTCTCCCAGCTGATGAATTCAGATAGTCGAGTAAACAAATTTTCCTAATCTTTCTGTTCAAGCGCCATCTAC”, for which the binding signal is 0.848 RPM ratio (pull-down/input).
Turning to “GATGATTGTTCTCCCAGCTGATGAATTGTTACCGTCGAGTAAACAAATTTTCCTAATCTTTCTGTTCAAGCGCCATCTAC”, the binding signal was 1.21 RPM ratio (pull-down/input).
Consider “GATGATTGTTCTCCCAGCTGATGAATTGCCTGCATCGAGTAAACAAATTTTCCTAATCTTTCTGTTCAAGCGCCATCTAC”, for which the binding signal was 1.21 RPM ratio (pull-down/input).
With “GATGATTGTTCTCCCAGCTGATGAATTGTTCACTTCGAGTAAACAAATTTTCCTAATCTTTCTGTTCAAGCGCCATCTAC”, the binding signal was 1.1 RPM ratio (pull-down/input).
For “GATGATTGTTCTCCCAGCTGATGAATTGTGACCATCGAGTAAACAAATTTTCCTAATCTTTCTGTTCAAGCGCCATCTAC”, the binding signal was 1.16 RPM ratio (pull-down/input).
For “GATGATTGTTCTCCCAGCTGATGAATTAGACCAATCGAGTAAACAAATTTTCCTAATCTTTCTGTTCAAGCGCCATCTAC”, the binding signal is 0.965 RPM ratio (pull-down/input).
In the case of “GATGATTGTTCTCCCAGCTGATGAATTAGTACTCTCGAGTAAACAAATTTTCCTAATCTTTCTGTTCAAGCGCCATCTAC”, the binding signal is 0.952 RPM ratio (pull-down/input).
Take “GATGATTGTTCTCCCAGCTGATGAATTTAGCCAGTCGAGTAAACAAATTTTCCTAATCTTTCTGTTCAAGCGCCATCTAC”: the binding signal is 0.865 RPM ratio (pull-down/input).
The value for “GATGATTGTTCTCCCAGCTGATGAATTAAATAGATCGAGTAAACAAATTTTCCTAATCTTTCTGTTCAAGCGCCATCTAC” was 1.09 RPM ratio (pull-down/input); that for “GATGATTGTTCTCCCAGCTGATGAATTGACAAGTTCGAGTAAACAAATTTTCCTAATCTTTCTGTTCAAGCGCCATCTAC” was 1.29 RPM ratio (pull-down/input).
For “GATGATTGTTCTCCCAGCTGATGAATTGAATTCGTCGAGTAAACAAATTTTCCTAATCTTTCTGTTCAAGCGCCATCTAC”, the binding signal is 0.818 RPM ratio (pull-down/input).
With “GATGATTGTTCTCCCAGCTGATGAATTATTTGGTTCGAGTAAACAAATTTTCCTAATCTTTCTGTTCAAGCGCCATCTAC”, the binding signal was 1.19 RPM ratio (pull-down/input).
